This note sets out measurements from patent US20250276080A1 (Amgen, published 2025).

Assay [1] addresses human glucagon-like peptide-1 receptor (human, UniProt P43220 24-463). Kind of assay: cell-based or functional assay.
A further assay addresses human glucagon receptor (human, UniProt P47871 26-477). Kind of assay: cell-based or functional assay.

Sequence of human glucagon receptor (P47871 26-477): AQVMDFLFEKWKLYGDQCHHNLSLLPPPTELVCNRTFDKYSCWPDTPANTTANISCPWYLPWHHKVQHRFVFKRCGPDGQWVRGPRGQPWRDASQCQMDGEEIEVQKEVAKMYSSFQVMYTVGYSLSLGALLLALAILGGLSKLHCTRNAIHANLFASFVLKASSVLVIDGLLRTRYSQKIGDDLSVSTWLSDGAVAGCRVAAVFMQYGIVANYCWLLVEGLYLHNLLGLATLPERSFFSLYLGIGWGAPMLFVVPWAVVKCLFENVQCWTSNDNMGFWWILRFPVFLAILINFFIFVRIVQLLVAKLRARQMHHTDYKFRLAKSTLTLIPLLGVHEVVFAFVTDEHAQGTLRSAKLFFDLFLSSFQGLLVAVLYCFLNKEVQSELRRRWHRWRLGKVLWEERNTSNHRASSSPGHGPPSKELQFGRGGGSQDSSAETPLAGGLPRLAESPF

B1: Conjugate 1898: aGIPR 2G10.007 SEFL2-E384C-3360331 (other)
heavy: QVQLVESGGGVVQPGRSLRLSCAASGFTFSNYGMHWVRQAPGKGLEWVAAIWFDASDKYYAD[about 20 residues not spelt out]MNSLRAEDTAVYYCARDQAIFGVVPDYWGQGTLVTVSSASTKGPSVFPLAPSSKSTSGGTAALGCLVKDYFPEPVTVSWNSGALTSGVHTFPAVLQSSGLYSLSSVVTVPSSSLGTQTYICNVNHKPSNTKVDKKVEPKSCDKTHTCPPCPAPELLGGPSVFLFPPKPKDTLMISRTPEVTCVVVDVSHEDPCVKFNWYVDGVEVHNAKTKPCEEQYGSTYRCVSVLTVLHQDWLNGKEYKCKVSNKALPAPIEKTISKAKGQPREPQVYTLPPSREEMTKNQVSLTCLVKGFYPSDIAVEWESNGQPENNYKTTPPVLDSDGSFFLYSKLTVDKSRWQQGNVFSCSVMHEALHNHYTQKSLSLSPGK
light: EIVMTQSPATLSVSPGERATLSCRASQSVSSNLAWYQQKPGQAPRLLIYGAATRATGIPARFSGSGSGTEFTLTISSLEPEDFAVYYCQQYNNFPLTFGGGTKVEIKRTVAAPSVFIFPPSDEQLKSGTASVVCLLNNFYPREAKVQWKVDNALQSGNSQESVTEQDSKDSTYSLSSTLTLSKADYEKHKVYACEVTHQGLSSPVTKSFNRGEC
peptide: [about 20 residues not spelt out]
chain: GSPAPAPAPAPAPAPAPAPAPASGG
modifications: N-term acetyl-thioether to Cys; K28 eps-NH linked to linker C-term; C275 conjugated to linker
As to B1, the “hGLP-1R EC50 (pM)” value in assay [1] is 9620 pM. Moreover, in the assay with human glucagon receptor, the “hGCGR EC50 (pM)” value is 705 pM.
